Measurements as given in the supplement of paper PMC3334620.
The full ranking holds about 33,000 sequences; the median of “E-score (-0.5 to 0.5)” is about -0.054, and the highest 2% start at about 0.39. The list shows a part of the results.

molecular target: Ylr278c (UniProt Q05854); test: PBM E-score (8-mer binding enrichment) (E-score (-0.5 to 0.5)); higher = stronger / more preferred TF binding; most listed sequences are background and not binding sites; details: protein concentration: 200 nM; construct: GST-DNA-binding domain
Description: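 Universal 'all 10-mer' protein binding microarrays (Agilent AMADID 015681) probed with GST-tagged S. cerevisiae TFs (full-length or DBD) made by in vitro transcription/translation (PURExpress), about 100-200 nM. Bound TF was detected with fluorescent anti-GST. Each ungapped 8-mer (which stands for itself and its reverse complement) is scored by the PBM enrichment score (E-score), a modified Wilcoxon-Mann-Whitney statistic from -0.5 to +0.5, computed with the Universal PBM Analysis Suite. Scale: above 0.35 generally sequence-specific binding.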

Sequence | PBM E-score
CGTAGGGA | -0.178
CAATGAAA | -0.235
ACCATTCC | 0.146
ACGGACAG | 0.043
AGCAAGGG | -0.0657
GAGCCGGA | 0.407
AAAGAACG | 0.0048
CTTTGTAA | -0.0847
AACGTACC | -0.117
CCCTGTCG | -0.0722
AGCCTAAA | -0.138
ATCAGGTA | -0.101
AAGTGGAC | -0.113
ATAGTGAG | -0.229
CACATGCA | -0.182
ACATGCGC | 0.0214
AAGGGGAC | -0.105
TGCTATAA | -0.134
AATAAATT | 0.04
CACCATGG | -0.32
GTAATCTA | -0.052
ACGCGCTC | -0.0144
ATCTACAA | -0.172
AAAAGATC | -0.0655
TGAAGTAA | -0.132

Sequence | PBM E-score
ACTTAACC | -0.0501
GAGCTCCC | 0.00449
ATCAGGAG | -0.02
AGCGCCAC | -0.108
AGCTTCAC | -0.216
CTTATTCC | 0.249
CGGCGACC | 0.306
TACCTGGA | -0.116
ATACAGAC | -0.0717
ATAGAGAC | -0.248
GTAGATCA | 0.0365
GAGATAAC | 0.0356
GTAAGTAA | -0.0435
CGAGTAGC | 0.0771
GTAGGCTA | -0.151
ATACAACA | -0.152
ACAAACGG | 0.203
AGAGCTCC | 0.193
ACTCACTA | -0.144
ATCGGCAG | 0.213
CTGTGAAC | -0.198
CTTTAGCC | 0.15
GGCCCCTA | -0.0509
ATAGTGGA | -0.04
CATCGTGA | -0.119

Sequence | PBM E-score
CGTTCGTC | 0.0351
GACAACGA | 0.00479
ATCAATAC | -0.232
GAGATGCC | 0.0775
CCCTTATC | -0.0989
TAGGTCGA | -0.114
AAGGACGC | -0.0694
ATGAAAAA | 0.0858
AGTTTCAG | 0.0252
ACCGGTCT | 0.146
ACGGCTAC | 0.0549
CAGTTAAG | -0.119
CCGGACCC | 0.391
AAGCGCGT | -0.064
AAGAGTAG | 0.0448
ACATTCGC | 0.0596
ACCAACGT | -0.215
CGTGAAGC | -0.0642
TGAGGAAA | -0.0933
AAGTGGGT | 0.00453
ATAGGGAA | -0.0367
GGCACTCA | -0.315
ATGGCTCG | -0.116
CAGCATGC | -0.042
CGACAAGA | 0.0177

Sequence | PBM E-score
CTCACTCA | -0.0527
TGCGCGCA | 0.204
ATCCTTCC | -0.124
AGAACTAC | -0.0654
CACCGCTG | -0.0372
GAAGCCAA | 0.0199
CGCAAAGA | -0.0298
ATTAATGC | 0.107
GAATGCAC | 0.0728
ACCCGCTC | -0.0324
ATGGATCG | 0.166
GCTGCTCA | -0.347
CACAAGAG | -0.0341
CTCGACGC | 0.0704
TAAGATTA | -0.125
CCAGATGG | -0.0985
CCATCTAC | -0.0779
CTGTACAC | -0.176
ACGTTCAC | -0.102
ACTATAGC | -0.0594
CGGAAATC | 0.41
CATAGAGA | -0.198
CCGGACAG | 0.357
ACCACCGC | 0.0504
CAATTACA | 0.0794

Sequence | PBM E-score
AATGGCAA | -0.195
AGACGCTA | -0.146
CCCGCCTC | 0.147
CCCGGAAG | 0.39
AGGTCACG | -0.111
GGTAGGAC | -0.00594
ATATTAGC | -0.0489
ATAGCGGC | 0.147
CCTAGCAC | -0.112
AATGACAC | -0.186
CGGTCATA | 0.159
AAGCACGT | -0.209
TAGCAAGA | -0.23
GCTACTAC | 0.126
ATTTGGAC | 0.0193
GCAATCAA | -0.015
CCGCGACA | 0.113
ATTACCCC | 0.229
TACAATGA | -0.269
GGTGAGGA | 0.0213
CTAAATAA | -0.202
AATCGCCC | -0.00431
AGGATCAT | -0.258
GCGGGGTA | 0.323
AGCCCGGG | 0.328

Sequence | PBM E-score
AATCCAGA | -0.0484
ATGCGGCG | 0.244
GTCCTGAA | -0.153
AACTCGTG | -0.105
AAACTGTT | -0.0687
AACATTCT | -0.176
CTGGACAC | -0.191
CAGAAGAA | -0.127
TCGGACGA | 0.271
ACTAAAAT | -0.0501
AGCAACTG | -0.0877
CTATTCCA | 0.02
GGACCCAA | 0.0838
GCTATTCA | -0.0562
TAACCGTA | -0.0936
ATCCAGGG | -0.202
AGTCCGGG | 0.44
CGTCGCCA | -0.27
CTGCCTAC | -0.116
GCCAGCTA | -0.18
CGGGTGAA | 0.159
GGCCGGAC | 0.419
CCCGCGCG | 0.326
GAGAGAAA | -0.0494
GACTTTGC | 0.00324

Sequence | PBM E-score
AGTATCTC | 0.114
AAAACATA | 0.0523
GACGGATC | 0.132
AATACGTG | -0.209
ATTGATTG | 0.106
GCTTTAAC | -0.215
ATAAATTG | -0.00791
CCATTCCC | 0.115
CGTGAACG | -0.0842
CTAGGATA | -0.15
ACGCTATG | -0.0961
CGTTCACC | 0.0466
AAAACGTA | -0.157
GCGATCAC | 0.0148
AAAAATAT | 0.0546
GGCTCAAA | 0.0317
CCAACCTC | 0.0644
ACTCGCCC | 0.0369
AAGAGCTA | -0.167
CTTGGCGA | -0.203
AGACCAAC | -0.159
CAAGGATG | -0.287
CATAGGCC | 0.0769
CTACATAA | -0.0134
GTTGCAAC | 0.0952

Sequence | PBM E-score
TATAACCA | -0.151
CTAAAGTC | -0.203
CCTGGAGC | -0.03
ACTATTAC | -0.0246
ACGGCCGG | 0.33
TAAGCGAA | 0.00013
AATCTTGC | -0.1
ACATTTGA | 0.0639
ACACGTTC | -0.0701
TGACATCA | -0.171
GTCAGCAA | -0.18
ACCATCGA | -0.304
AGCCATTA | -0.116
AAGAAACC | 0.0438
TAATTAGA | -0.0264
AATGCCGG | 0.421
ATCAGCAA | -0.00911
AAAGACCC | -0.133
ATGCTTGA | -0.0305
ATGCGCGA | 0.0964
TCGATCCA | -0.212
ACTGGAGA | -0.0936
ATCACAAG | -0.214
AGAGGACT | -0.232
AGGTTTAC | -0.164

Sequence | PBM E-score
ATCCGATA | 0.399
GGGTATCA | -0.119
CACGACAA | -0.231
CTCCCCTC | 0.0443
AAGTACAA | -0.11
CTCTTTTC | -0.0672
CTGAGAAA | -0.125
GACGTGTA | -0.0667
AACACGAA | 0.0438
CTCCCGGA | 0.398
AAGATGCG | 0.055
GAAGGCTA | -0.21
CTATGAAC | -0.19
GCTGAAAA | -0.0238
AACACCAC | 0.00024
AGTAGTCA | -0.202
CGGATCCA | 0.221
GAGTGTCC | 0.0987
AATAACCT | -0.239
AGGCATAC | -0.013
ACATTCAA | 0.0683
AGCTTACC | -0.098
GAGGTGAC | -0.0284
CCATCATA | -0.102
CGGAATGC | 0.361

Sequence | PBM E-score
ACGTCACG | -0.191
AATGGCCC | -0.0705
AAAGCAGT | -0.138
GAGACAAC | 0.0353
ACTCAGAA | 0.0406
AGGTTAAT | -0.0384
CTTATCTC | -0.0869
AACGAGGG | -0.229
CAGACCTG | -0.203
AAGGTGCG | 0.0197
CCGGGACA | 0.339
GCTGTACC | -0.00975
AGGATTAG | -0.245
ACTCTCTG | -0.163
ATTTGTTC | 0.114
CGCACGCC | 0.155
GGTCGTAA | -0.0868
GGCCCGAC | 0.124
AACTCTTA | -0.119
GACATCGA | -0.126
CGCACCGC | 0.123
ATCGAGGA | -0.162
ATGTATTA | -0.159
AAGCTACC | -0.102
TACTCGCA | -0.085

Sequence | PBM E-score
ACACTCAA | -0.0759
GTTACGGA | 0.354
ACCTGCCC | -0.0559
AATGCCAA | -0.117
AACGGTCC | 0.0516
AAACAAGC | 0.0417
GCTATACC | -0.00728
AGCACCTG | -0.217
CGCTCACC | 0.0135
GCGAGCCC | 0.109
AATAGTCG | -0.0923
CGGTAACA | 0.205
CCTAGATA | -0.328
GCCCGTGA | 0.103
CTGTAGGA | -0.00233
AAGAGGCG | -0.143
AGAGCCAC | -0.191
AAGCACTT | -0.113
GCCTAGCC | 0.0257
CGTGACCA | -0.0799
AGCTCATA | 0.00205
ACACAACT | -0.0696
AGCATTGA | -0.293
TTCGTAAA | -0.164
AGGGAGCA | -0.163

Sequence | PBM E-score
AGTGCGCG | 0.15
GTGATCAA | -0.156
CTAATGAG | -0.209
ATGTTACC | 0.00456
CCGCACGA | 0.0964
ATAGCACG | -0.0307
CCCATGAC | -0.106
AAGGTATT | 0.0675
AAAACGTT | -0.0478
ACCGGATA | 0.265
CAATAGTC | -0.201
GTGGACTA | 0.0449
GGCAGGCA | -0.0704
CCTCAAGC | -0.0712
AAGCGGTG | -0.14
CAAATAAA | 0.0228
GTGCGGGA | 0.274
ACGCGCCT | -0.0629
ACGCGCAG | -0.177
GAAATCGC | 0.214
AACTGTTC | 0.109
CCCCCTAG | -0.34
AATCCAGC | 0.0196
GATACCCC | 0.112
ACTCATCT | -0.155

Sequence | PBM E-score
CAATTCGG | 0.256
CTGGAGAA | -0.141
AGCCCCAA | -0.262
CCACACTA | 0.0795
CCTATGTC | -0.112
CTGAATAC | -0.153
TCATGCAA | -0.0524
CAGAAAAG | -0.0399
AAATCTCC | 0.246
AAGTCGAT | -0.119
CAGATAGG | -0.159
AGCGATAC | -0.242
AACTCACT | -0.397
CGGCTAGC | 0.0612
TCCCCGCA | 0.323
GGCCAAAC | 0.106
AGTCTTGG | -0.14
CATTGGCA | -0.208
CACATCGA | -0.191
AAGAACAT | 0.0106
CAAAGTTG | -0.232
AAGGGGAT | -0.0327
ATATTCGC | 0.0699
GTCCGAGA | 0.416
CGGGAGGC | 0.064

Sequence | PBM E-score
ATTGGATC | 0.0248
TGGTACAA | -0.355
ACTAATCC | 0.0875
TATTATGA | -0.239
GCCTGCCC | -0.063
AACCGCGG | 0.305
CTGAGTTA | -0.248
AAGCGCCT | 0.0348
GAGGGCCC | 0.0735
CACTTTGA | -0.207
CGAATTTA | 0.0471
GCAATGTA | -0.0559
ACCCCTGC | -0.127
TAGGCATA | -0.212
GCATTGGC | -0.233
AGAGCGAT | -0.186
ATCTCAGG | -0.0988
AGCCAACA | -0.169
ACCAAAGC | 0.0231
